Data on two sequences can be found in paper PMC3050690.

This data set addresses T1, MalE-GadX (GadX fused to maltose-binding protein) (Escherichia coli K-12 (genomic library)) (UniProt P37639).
T1 sequence: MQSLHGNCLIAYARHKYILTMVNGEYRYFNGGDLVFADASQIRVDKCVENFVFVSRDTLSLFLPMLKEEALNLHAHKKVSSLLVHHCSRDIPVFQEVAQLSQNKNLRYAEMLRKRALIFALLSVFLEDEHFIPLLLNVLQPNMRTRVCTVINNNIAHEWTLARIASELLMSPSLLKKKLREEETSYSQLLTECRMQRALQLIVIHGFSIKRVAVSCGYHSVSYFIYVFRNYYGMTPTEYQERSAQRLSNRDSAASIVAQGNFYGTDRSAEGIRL
Description: EMSA. To be noted: EMSA: binding buffer of Tramonti et al. (not given), room temperature 20 min, 5% native PAGE 0.5X TBE; footprinting: 40 mM HEPES pH 8.0, 100 mM KCl, 10 mM Mg …. (In general: Mobility shift assays separate free from complexed probe on a gel.)

For “CGTGAATCGAGTAGTTCCGACCTTAAATCCGTTACTTGCTTCTTATCCATTTTAAACTCCTTAAAATGATTGGATCGCATTAAAAAAGTAGGATTTATCGATAAAGTAAGCAAGTGCAAAGGACTCGTGTTTAAATAACAAAATCCTAATGTTATTTATCGTGAGATATTACGCGAATAATATTTTTTCATTGAAAAACAATACAATATGAAATTCTTGGGTGGTGGTAAGGTGTTTTATGCTGTTATT (double strand) [PgadB promoter fragment]”, the binding entry is “binds”. For “CGTGAATCGAGTAGTTCTGAGCGGAAATCCGTTAACAGCTTCTGGTCCATTTCGAACTCCTTAAATTTATTTGAAGGCAATAAAAAAGTAGGATTTATCCGCAATGGAAGCAAGGCATTACAGGCTTAATTTAAATAACAAAATCCTAAGCAGAAAAACGACTTTTTATAATATAAACATTTAACATGATAATATTAAAAACAGACTTTATTATCGTAATAAAAATCGCCCAAACATTGCTGTTCGGGCGATC (double strand) [PgadA promoter fragment]”, the binding entry was “binds”.
